Experimental data as given in the supplement of paper PMC4466236.
Over roughly 33,000 sequences, “E-score (dimensionless, -0.5 to 0.5)” has its median near -0.058; the highest 2% begin near 0.35. The list shows a part of the results.

Tested on: MvaT
Assay: PBM 8-mer E-score (mean of HK and ME arrays) (E-score (dimensionless, -0.5 to 0.5)); higher = stronger relative binding preference; most listed sequences are background and not binding sites
How it was run: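 Full-length P. aeruginosa MvaT, with glutathione S-transferase fused to its N-terminus (cloned into pTH6838 by isothermal assembly), was tested by protein binding microarray using a previously described protocol. Two universal double-stranded 60-mer arrays (ME and HK) were used, each with a constant 25-mer primer region and a variable 35-mer region covering all 8-mers. The rank-based 8-mer E-score (-0.5 to 0.5) is the mean of the two arrays, parsed with a custom Python script.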

Sequence	PBM 8-mer E-score
AGTACGAT	0.0378
CTCGAGAC	-0.0769
ATCAACTC	0.0659
CCGCGCGA	-0.104
GTTATATA	0.456
TGTACGAA	0.0758
ATTATAAT	0.468
CTTGTGGC	-0.154
ACAATCAG	0.0332
GGGTCTTA	-0.076
CACGGCAC	-0.047
CACTTAAC	0.132
ACCTCCGT	-0.218
GTACGTTA	0.2
CTTATACC	0.268
AGTCTAAA	0.133
CCAGAAAC	-0.0182
ACCAACTC	-0.0171
ACGCCAGT	-0.271
GTTTCGTA	0.0193
GGGGCCCC	-0.29
CTTCCGAC	-0.0694
GGAAACAA	0.206
ACGAATAC	0.157
AATACGGC	0.183

Sequence	PBM 8-mer E-score
AGTTGTGA	0.159
CCAAACAA	0.0179
ACACCATG	-0.0471
AAGCCTCG	-0.197
GATCAGAC	-0.035
CCGCCCGC	-0.0309
ATTATTGC	0.292
CCTTGTAA	0.14
CCCCTGTA	-0.28
CAATCAAA	0.173
AACAATCC	0.126
ACACTAAT	0.345
CGGCTGTC	-0.311
CCCGGCTC	-0.251
CGAGCGTC	-0.177
CCTTCGAA	-0.024
AGACTCTA	-0.0143
TAGATTAA	0.266
CGTTGTGC	-0.144
AAGGCGAC	-0.204
CTATCGGC	-0.185
CAGCTGAC	-0.0993
CACACTCG	0.0108
ACGGCAGT	-0.207
ATCCACAA	0.169

Sequence	PBM 8-mer E-score
CACGTCGC	-0.239
GCAGGAGC	-0.317
GAGATATA	0.303
ATTCCTTC	-0.0387
GACGAACC	-0.212
ATGGTAGC	-0.0782
ACTTGTAC	0.158
CCTCTTCC	-0.292
AAGGTACC	-0.0656
GTTACAAA	0.245
CCAGCGCA	-0.0535
AGGGGCTC	-0.394
TACCCTCA	-0.17
GCCCAGTA	-0.124
TAAGCGTA	0.148
CGCGGTTC	-0.155
GAGGCACA	-0.222
AGGAGGCG	-0.269
GGCCGTTA	-0.0451
GGGGGGCA	-0.304
GTCGTTTA	0.167
AGATGATG	-0.113
ACCCCAGT	-0.141
CTTCCATA	0.0142
CAGGAAGG	-0.199

Sequence	PBM 8-mer E-score
CAGGTAGA	-0.0433
TCGGTAGA	-0.097
CAGTCTAA	-0.0664
TGACCCCA	-0.229
GGCTAGCC	-0.351
ACGGGCTG	-0.139
AGTTAACG	0.204
AGAGGGAG	-0.167
AAAATCTT	0.102
AATTACCT	0.166
GGGCATTA	-0.0452
CTTAGCTC	-0.105
CCTTCCAC	-0.103
GCTCACTA	-0.0905
ACCGGCAC	-0.089
ACAGTGAG	-0.191
CTTAGACC	-0.039
CGCTACCG	-0.188
AGCATAGC	-0.249
GGTCTCTA	-0.111
GGAGTAAC	-0.0314
AGCGATCA	-0.101
CAGCGCGA	-0.238
CATGGGGG	-0.283
TGCCGGCA	-0.0619

Sequence	PBM 8-mer E-score
AAAGCAGG	-0.187
GCATCCCA	-0.191
GGTTGGTA	0.0024
CTATGATA	0.157
CAGCTCTA	-0.0268
GCCCCGAA	-0.0336
TACTGAGA	0.0687
ACTTCTTA	0.271
AAACGGGA	-0.0786
AAAAATCG	0.16
AAGCTCCT	-0.31
AAGTTCCG	0.211
GTGCAGGA	-0.156
CCAATTTA	0.212
AGAATGGA	-0.0576
CTTCCCCA	-0.251
ATTGCCGA	-0.0244
AGCCTGCA	-0.119
CTATATAG	0.388
GGTGTACA	0.0661
CTAAAGTA	0.224
AACGCCTC	-0.0651
CCAGTAAC	0.134
ATCGCAAG	-0.127
CAGGGGCG	-0.317

Sequence	PBM 8-mer E-score
CGCTTATC	0.0289
ACCCGTAG	-0.196
ACAACCTC	-0.0749
TTCATGAA	0.131
GCGTGTGA	-0.241
AACGACCT	-0.0501
CTGTGTGA	0.0126
CATTGCGG	-0.0539
CCCGTCTA	-0.21
ACAGACCG	-0.151
ACACATCA	0.0656
GAGGGGAC	-0.373
CGATTAAC	0.0306
CATTACCG	-0.0468
ACTTAAGT	0.314
ACAGAGCG	-0.191
ATTGTGCG	0.199
TCTGGACA	-0.0718
ACTGTCTC	-0.0831
CATGAGTA	0.161
AGGATTCG	-0.148
AGCTTCGA	-0.173
CTAAGCTC	-0.123
ACGGCCCT	-0.185
ATGGTGCG	-0.157

Sequence	PBM 8-mer E-score
CACTTAAG	0.167
GAGTTTGC	0.0199
GCACGCCC	-0.286
GCCCATGA	-0.198
GGTCCTCA	-0.193
AATCATGT	0.113
ATATTTGA	0.363
ATGCCTTA	0.0517
AGTCACCA	-0.0571
AATGGCAG	7.27e-05
AGGTGACA	-0.0864
ACATAACA	0.149
CAATATCA	0.304
GTCAGAAC	0.0545
CAGCGGAA	-0.0331
AGGTTACT	0.0371
GAAGACGC	-0.203
CACCCCGG	-0.32
AATCACAC	0.151
GGAGTTAC	-0.0861
GACGATTA	0.0842
CCGACCCG	-0.281
